# Test results published in the supplement of paper PMC11417369.
# ± gives the standard deviation of the averaged measurements. Some of the results follow.
# Test system: PfAP2-EXP AP2 domain (GST-tagged)
# Assay: gcPBM binding intensity (ln(normalized median fluorescence intensity)); higher = stronger DNA binding
# How it was run: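 Binding intensity values are the highest Masliner-normalised natural-log median intensity among replicate spots of either probe orientation. The binding step lasted 1 h in 1× PBS with 1% milk, 0.2 mg/ml BSA, 0.5% salmon testes DNA and 0.03% Triton X-100, using GST-tagged P. falciparum DNA-binding domains expressed in E. coli on an Agilent 4 × 180k array of primer-extended double-stranded 36-bp intergenic genomic probes plus negative controls. Alexa488 anti-GST antibody and a 488 nm scan detected bound protein.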
row,Sequence,gcPBM binding intensity (ln)
1,ATATTTTTATATGAGGTGCATATAATGACAATTAAG,8.765 ± 0.035
2,ATACTATTTAAATGGGTGCTAAAAATAACAAAAATT,8.84 ± 0.34
3,TCTTTTTATGTTCTAGAGCATTTTATTATTTAACAT [CACACA_negctrl_site1699],8.71 ± 0.42
4,TTCCCCCCCAGACACACACACACATACATACCACAT [CACACA_site2305],10.5 ± 0.24
5,AATCGAAATCGTGCACGGACACATGCAGTAGCCGAG [XGTACX_site6001],9.29 ± 0.6
6,ATATATATACACAATAGTACGTGTAATATTATTATT [XGTACX_site2151],8.525 ± 0.021
7,TATACCTATAAATACACACACATATATAAATAAATA [CACACA_site6730],8.64 ± 0.47
8,TTTTCTTTTTGTTCGTGTACACACATGAAATTTATA [XGTACX_site3301],9.02 ± 0.38
9,AAACGTACATAATACACACACATGTATACATATAAA [CACACA_site2048],8.74 ± 0.52
10,ATTTCTTTTTTTTTTTTTTTTAATGTAAAACATTTT [CACACA_negctrl_site1462],8.34 ± 0.51
11,GAAGTTAGTGTTGACTGTACATATATATGTATATAT [XGTACX_site7243],8.69 ± 0.35
12,AAAAAAAAAAAAAAGAGTACTCATATAAAAATATAA [XGTACX_site6551],8.43 ± 0.33
13,GGTGGTAAAAAACCTGCATGTCGAAATATTAAATAC [TGCATGCA_site33],9.23 ± 0.29
14,AAGAAGAAACAAAACACACACAGTCTTCTTTTCTAT [CACACA_site3088],8.78 ± 0.78
15,GTATATGAATAATATTTTATGGTAATTTTTTTTTTT [XGTACX_negctrl_site512],8.12 ± 0.38
16,TACAGAATTGTATATAGTACATAAAACAATATATAT [XGTACX_site7275],8.7 ± 0.43
17,TGTGTAAAAATCATGGGTACACATTTTGATACCAAT [XGTACX_site1779],8.69 ± 0.4
18,AATGAAAAGTAAAATACACACACATAATATAATTTA [CACACA_site8608],8.59 ± 0.39
19,AAACTTGACGAACACACACACACATATATAAAAAAA [CACACA_site6494],8.72 ± 0.45
20,TTTTTATAAAAAATTTACACTATATGACAGAAGTAA [XGTACX_negctrl_site481],8.38 ± 0.49
21,ATAAATTAAAAACACACACACATCTGGATACCCCTA [CACACA_site5780],8.77 ± 0.49
22,ATATAAGTACCTATAACACACATATATTATAAGTAT [CACACA_site7281],8.5 ± 0.35

row,Sequence,gcPBM binding intensity (ln)
1,TAGAATAAATTAATTACACACGGAATTATATATATA [CACACA_site1616],8.88 ± 0.014
2,AAAAAAAAAAAAAAAAGTACATGAAAAAAAGAAGAA [XGTACX_site8384],8.87 ± 0.28
3,TATAATAGTTCATAGGTGCAATATAATAAATTTATA [GTGCAC_site9573],8.71 ± 0.15
4,TATCATATATTATAGCGTACTTATTTATTTATTTAT [XGTACX_site1676],8.79 ± 0.47
5,AAAAAATACATCAAAAGAAACATATATATATATATA [GTGCAC_negctrl_site719],10.2 ± 0.67
6,ATAAAACTTATTTAACGTACATATTTTATATACCTT [XGTACX_site5353],8.69 ± 0.45
7,TATAAAATAAATAACAAAAAAAATAAAATAAAAATA [TGCATGCA_negctrl_site297],8.47 ± 0.47
8,TTTTTTTTTTAGTATGAACACACATATATATTATAA [CACACA_site8957],8.46 ± 0.32
9,AATGGTTATAATATATGTACATATAAATATACTGAA [XGTACX_site8533],8.6 ± 0.38
10,TATAGCAAAATATTCACACAAACTATTAATAAAAGT [CACACA_site5795],8.69 ± 0.45
11,CTGTATTTATTTTTCTGTACCAAATCACCCCTTGTA [XGTACX_site395],9.02 ± 0.45
12,TATATTTATAAATGAACACACACGCAATTTGAATCG [CACACA_site3370],8.91 ± 0.49
13,TTTCTTTTTCGATATACACACTGTATGTGTCTAAAA [CACACA_site6054],8.46 ± 0.35
14,TACGTTTTATGACACACACACAAAAAAAAAAAAAAA [CACACA_site7764],8.32 ± 0.45
15,GATGTATAAAATAATACATGCATGTCCTACATATAT [TGCATGCA_site155],9.37 ± 0.37
16,ACTATTTTAAAAATATGTACATACGTTGTAATTTAA [XGTACX_site7999],8.57 ± 0.37
17,TTTCCGGTAATATGGAAATATATGTGGGTTTTTTTT [CACACA_negctrl_site1536],8.42 ± 0.69
18,CGAAGGATAAACATACGTACATATATGTGTATAATA [XGTACX_site779],8.67 ± 0.47
19,TTGTATTAAAATCAAGTGCATATAATTTAAGTTCAT [GTGCAC_site9495],8.38 ± 0.11
20,CTTTGGTTATAACACACATGCACACGTAAATAAATA [TGCATGCA_site976],9.13 ± 0.38
21,GTAGGTTACAAAATGTGAGAGAAGCAAATATAGAAA [CACACA_negctrl_site1819],9.06 ± 0.4
22,CATCACCTTTTTAAATGTACGCATAATACCAAAAAA [XGTACX_site1587],8.67 ± 0.17

row,Sequence,gcPBM binding intensity (ln)
1,TTTTGTTTTTAGTTTATACACACCATATTAATATAA [CACACA_site3102],8.76 ± 0.44
2,AAAAATGGTGTTAACACACACATATATATATATATA [CACACA_site571],10.2 ± 0.17
3,TTTCTCTCTTATAAAATACACACGAACAATCATATT [CACACA_site509],8.5 ± 0.38
4,ATAAATAGTATTATATGTACACATAATATTTATAAA [XGTACX_site4751],8.62 ± 0.14
5,ATAGTTACACGCCAAAAAAAAAAAAAAAAAAAAAAA [CACACA_negctrl_site1133],8.15 ± 0.44
6,TTAATATAGGGAAAAAAAAGAAAATCGAAAATGTGT [CACACA_negctrl_site834],8.76 ± 0.49
7,TATAATTATGATGATAGTACGTATGAGTTCAAAACA [XGTACX_site4211],8.62 ± 0.37
8,CACATTTTTTAAATATTTTTCTACTCCATAATGTTT [CACACA_negctrl_site557],8.89 ± 0.4
9,TTAAAATGATTGTTACTTTTTTTTCCGTTTTCTTAA [CACACA_negctrl_site1195],8.41 ± 0.52
10,AATTTTGTCCTATGTTGTACTATTTTGCTCTATTTT [XGTACX_site7139],9.12 ± 0.55
11,TAACTTCAAAAATCTTGTACATAAATATATAAAACA [XGTACX_site8574],8.53 ± 0.44
12,GTTTATATATTATAAAGTACATATGAATTTAATAAT [XGTACX_site3601],8.39 ± 0.39
13,ATTTCAAAATATAGCTGTACAAAAAATGTAGATATA [XGTACX_site5843],8.77 ± 0.56
14,AAAAAATAAATAAACATAAATAAATAAATAAATATA [XGTACX_negctrl_site340],8.49 ± 0.33
15,GATCATTCTAAATATAAACACACATAAATATATACA [CACACA_site9108],8.7 ± 0.51
16,ATAATATAATAATATTGTACATGGTCAAATATGAAA [XGTACX_site8390],8.46 ± 0.3
17,CTTAAAAAAATATATTGTACATATATATATACAACT [XGTACX_site1281],8.33 ± 0.3
18,TATATTCCCATATAACGTACATATGAGACACCAACT [XGTACX_site8099],8.65 ± 0.42
19,CACGTGAAAATACAAGCATGCAAGCTTTTTTTTTCT [TGCATGCA_site642],9.47 ± 0.085
20,AATTTTCAATAGTATACACACAATTCTATAAATATA [CACACA_site6650],8.21 ± 0.42
21,AATGAGAATTTTATTACACACTTTAATATATTTTCA [CACACA_site784],8.34 ± 0.38
22,AATTTTTTTATAGCACGTACAAAAATACAAAATACA [XGTACX_site1569],8.94 ± 0.16

row,Sequence,gcPBM binding intensity (ln)
1,TTATGTCTAATGAAATGTACATGAATAAATTAAAGT [XGTACX_site8138],9.04 ± 0.25
2,AGTGAAATTTTAGTCACACAGTTTTATCTTTAAGAA [CACACA_site5202],8.12 ± 0.52
3,TAGAGGAATATAATATGTACATAATATAATGTATAT [XGTACX_site2838],8.62 ± 0.4
4,ATCATTTATATTTTATGTACATATATAATTATATTT [XGTACX_site2129],8.88 ± 0.35
5,AAAAAAATAAATAAATGTACACATATATATATATAT [XGTACX_site4350],10.2 ± 0.47
6,AATTATATAAGCCACGCATGTGTGCATAAAAATACA [TGCATGCA_site114],8.93 ± 0.24
7,AGCCCAAAAAAGTAGACATGCAAAAACTTTACAACT [TGCATGCA_site550],8.79 ± 0.46
8,AAAAAAAAAAAGAAGGGTACATATTATATATAATAT [XGTACX_site6204],8.59 ± 0.48
9,TATATATAAACATAATGTACATATAATAAGTAATAT [XGTACX_site497],8.89 ± 0.45
10,TCTTGATCTTATATATATCTACAATATTTTATACAT [TGCATGCA_negctrl_site569],8.84 ± 0.41
11,ATTACAAATATAATATGTACTTAAATATAATTAAAA [XGTACX_site7038],8.17 ± 0.34
12,ATTACTAAAACAAAATGTACATATGATTTAAGAAAA [XGTACX_site5992],8.52 ± 0.3
13,TTTTTTTTTTAGAGTACACACTTTTTTACATTTATG [CACACA_site5990],8.56 ± 0.4
14,ATATATATATATATTGCACACATATAAATATATATA [CACACA_site8167],9.95 ± 0.29
15,TTTTTGTTTTTTTTGTGTACTTATCAAATATATATA [XGTACX_site7273],8.81 ± 0.42
16,GAAAAATTTAATTATTGTACGTTTCATCTATATTTA [XGTACX_site414],8.57 ± 0.44
17,AAGAAAATTAACCCATGTACTTATGTAGATAGCAAG [XGTACX_site1049],8.64 ± 0.42
18,TACTATATATTATATAGTACATAAGATATACAACAT [XGTACX_site2929],8.61 ± 0.38
19,CAAAAAAAATTATACACACACACACCCATATATATA [CACACA_site1044],8.85 ± 0.3
20,TAAAACTTAATATAAACACACAAAAATTAATAAATA [CACACA_site4370],8.47 ± 0.53
21,CAATATTATAGATATACACACATAATGTGTAAAAAC [CACACA_site6631],8.68 ± 0.39
22,CATATTTTGTGAAAAAGTACATATATATATATATAT [XGTACX_site6295],10.1 ± 0.33
